Experimental findings from the RNAGym collection of RNA variant scans (doi:10.7554/elife.90254) are described below.

Read counts are not given, so values of variants with three or more changes are uncertain.

Sequences and labels used below:
B1: OR4K15 (parent)
chain: GUUAACGGUCAUAGGCCAUGGAAACUAGGAGCACCAUUUCGCUGCCAGUGAAGAAAUGAACAAAGAAAAUCUGGGCCAGGCAGGCAUCAAAAGAAAUAGUCUUGCGCUCAACCAGAAAGUCUGUAAUCAUUUUAAGGGUA

In the data set the parent is B1. The data set can be described thus: self-cleavage, relative activity (ratio to wild type); higher = more cleavage; in vitro, sequencing; the parent is a self-cleaving ribozyme.
For the variant U57C U72A A118G, the self-cleavage stood at 0.09. With U57C A68G A78G the figure was 0.22; with A60G A95G A96G U122C U130C U132C, 0.85; with A60U A89U A117G, 1.06. Next, A59G A92U U132C: 1.39; A56G A64G U87C U103C: 1.22; A59U A68G G75C A89G: 0.21. With A56G A82G A91U U108A the figure was 0; with A59U A89G U127C, 0.63. Consider A59G A86G A89G U127C, for which the self-cleavage came out at 0.7.

As for A59G A62G A92G, the self-cleavage is 1.11.

As for A60G A89G C105U, the self-cleavage came to 0.09. With A59U A78G A89G A110U, the self-cleavage stood at 0.39. Next, A60G A63G A68G: 2.06; A60G A91G A126U U139A: 0.76; A59G A67G G79U G106U U130C: 0. Next, A56G A82G A118C U127A G137A: 0.15; A59G A64G A82G U100C U122C: 1.13; U57C A60G A114G: 0.38.

Turning to A59G A92G U102C, the self-cleavage amounted to 1.12. A59G A82G A118G A126G: the self-cleavage turned out to be 0.23. Next, A60G A91G U102C A110C: 0.48; A59U A62G A114G: 0.39; U57C G73A A90G: 0.03.

As to A59U A62C A118G A126G, the self-cleavage stood at 0.76. With A60G A62G U87A A116G the figure was 0.12; with A60G A82U U108C A129G U130C, 0.01; with A59G A62U G106A A114G A140G, 0. With U57C A67G A69G A91G the figure was 0.31; with A59G A62G A67G U87C U97C U131C, 1.53; with U57G A69G U103G, 0.06. Next, A59G A92G A135G: 0.98; A56G A60G G74C A110U A116G: 0.05; A59G U87C A90G U97C A110U: 0.09. As to A56G A64G A96G A116U U130A, the self-cleavage was determined as 0.19. Turning to A60G A62G A63U U100C, the self-cleavage stood at 2.09.

For the variant A56G U100C A116G U122A, the self-cleavage came out at 1.84.

A56G U132C G138U: the self-cleavage was 0.83. With A56G A69G G119A the figure was 1.13; with A59G A78U A91G, 0.08. Turning to U57C A66U U87C, the self-cleavage was 0.7. Next, C61A A64G U133A: 0.5; A60U A66G U122A A129G: 2.15. Next, A60G A92G A111G: 0.03.

As for U57C U87A U100C, the self-cleavage is 1.42. Next, A60G G65U A129G: 0.11. In the case of A56G A114G U139C, the self-cleavage is 0.24.

Regarding A59G A64G U108C, the self-cleavage worked out at 0.02.

On to A56G U87C A91G A116G, for which the self-cleavage is 0.25. With A56G A66G A125G the figure was 0.41; with A59G U132C U133A, 1.42. As to A59G A78G A94G A117G, the self-cleavage turned out to be 0.28. Next, A56G A60G U97C A118U U120A: 0.23; A59G A69G C101U: 0.16. With A59U A125G A140U the figure was 0.27. Next, A60G U102C U103A: 0.22; U57C A63G A92G A134G: 1.87; A60G U100C C105A: 0.03. Turning to A60G A63U A68G A86G, the self-cleavage came to 0.18. Take A56G A60G A114G: the self-cleavage was 0.37. Next, A59G A62U A64G A90G A96G: 0.6; A59G A78U A117G A140G: 0.35; A60U G104U A118G: 0.01.

For A56G A59G A68C U72C, the self-cleavage worked out at 0.04. Turning to A59G A60G A126C, the self-cleavage is 0.48. Next, A59G A62G G75A: 0.24. For the variant A60G A78U U102C U132C, the self-cleavage was 1.4. With A59G U100A A117G the figure was 0.57; with A60G U100A A116G, 0.32.

As for A56G A89U U97C, the self-cleavage was determined as 2. Next, U57G U87C G115U: 0.11; A59G C77U A82G A110G: 0.07; A59G A67G A82G U100C: 1.19. With A59G C77U A110G the figure was 0.34.

With A59U A62G U87C A96G U102C U103C U108A, the self-cleavage was determined as 0.01.

Take U57C A78U A116G: the self-cleavage amounted to 0.05. For A60G A62G A67G A78G A89G A111U, the self-cleavage is 0.02. For A60G U72C A98G U139C, the self-cleavage turned out to be 0.14.

Take A59G A96G A114U: the self-cleavage was found to be 0.07. With A56G A114G U132A the figure was 0.1; with A60G A66G A114G, 0.24; with A59G U72A U97G, 0.12. Next, A56U A59G A67G A118G A135G A140U: 1.36; U57C A63G A92G C105U A116G: 0.02. Turning to A59G U102C U131C, the self-cleavage came out at 1.08. With A60G A78G U122A the figure was 0.24; with A59G A69G A92G U122C, 0.99; with A60G U72C A118G A129G, 0.06.

As to A59G A64G G74U, the self-cleavage is 1.78. Next, A56G U108C C112G: 0; A59G U122C A126G: 1.25. Next, G58U A118G A125U: 1.31; U57A C61U A67C: 2.31; A56G A66G U100C: 1.29. Next, A59G U70C A126G: 0.27; A56G A78G A94G A117C: 0.09; G58U U102G U120C: 0.18. Regarding A59G U97C U127A, the self-cleavage was determined as 2.42. With A59G A78G A96C U102C the figure was 0.32; with A59U A66G A110U, 0.95; with A59G A62U A63G, 1.92. Next, A60G U72C C85U A114G U122C: 0.49. With A56G U57C A126G the figure was 1.38.

On to A59G A78U A116G U132C, for which the self-cleavage was determined as 0.08. With A59G A91G A96G U127C, the self-cleavage came to 0.26. Take A56G G106U A116G: the self-cleavage amounted to 0.

For the variant A56G A94G U122G U131C, the self-cleavage is 2.37.

In the case of U57C A64U A94G C113U, the self-cleavage came out at 0.03. Regarding A59G A96G A125G, the self-cleavage is 0.74. Next, A60G A86G U87C G104A A110C: 0; A60U A90G A96G: 0.45.

For the variant U57A A95G U120C, the self-cleavage amounted to 1.43. With A60G A110G A114G U131C the figure was 0.05; with A56G A69G G83A U100C C121A, 1.68.

Regarding A56G A116U U131C, the self-cleavage was 0.28. With A60G U100A U120C the figure was 0.34. Turning to C61U A94G G119A U139C, the self-cleavage came out at 1.6.

A60U C76A C81U A116G: the self-cleavage came to 0.06. With A59U A94G A118G A126U the figure was 0.64; with U57A A110G U122A, 0; with A60C A63G A135U, 0.88. Next, U57C A82U A134U: 0.03; A59G A78U U122C: 0.54. With C61U U87A A96G U132C the figure was 2.08; with A56G A68U A69G A82G, 0.21; with U57C A66G A96U, 1.76. As to A59G A82C U87C, the self-cleavage is 0.33.

In the case of A59G A64G G65A A94G U132C, the self-cleavage was 1.03. With U57C A66G A68G, the self-cleavage came out at 0. With U57C U70C A86G the figure was 0.62; with A56G A63G U103C A116G U122C, 0.09. Next, A60G A68G U102C: 1.4; U57C A82G A126G U131C: 0.2; A59U A62G A63G U108A: 0.08. With A59G A68G A86G U130C the figure was 0.38. In the case of A60G G79A U103C U131C, the self-cleavage turned out to be 0.02.

Turning to U57C A114G A129G, the self-cleavage was 0.44. Next, A59G A66G A67G A89U: 1.19. In the case of A56G U102C A118G U130C, the self-cleavage came out at 2.23.

In the case of U57C A118G U124C A126G, the self-cleavage came to 0.86. Next, A60G U87C A118G: 0.25; G58A U87C A92G A110C: 0.24. In the case of A60G U70C U122A, the self-cleavage is 0.58. With A59G A67G A126G the figure was 0.87; with C61U A86C U127C, 0.5; with A59U A92G A129G, 0.84. For A60G A114U A118G, the self-cleavage turned out to be 0.07.

For A56G A62U A68G A116U, the self-cleavage is 0.11.

A56G A96U A129G: the self-cleavage amounted to 2.29.

Turning to C61U A63U A94G, the self-cleavage came to 2.29. Next, A59G A60G U72A: 0.27; A59U A68G A92G: 0.34; A59G A60U A66G U100C: 2.31. With U57A A110G A111G the figure was 0.01; with A60G A92G A95G U108C A134U, 0.01. With U57C G93A U103C A135G the figure was 0.47. Regarding A60U U103C U120C, the self-cleavage was determined as 0.55.

For the variant A59G A125G G137A, the self-cleavage amounted to 0.29. With A56G A82G A90G the figure was 0.29; with A59G A67G A78U U130C, 0.25. With A59G U122A U130C the figure was 1.76. With A56G A94G A111G U120A the figure was 0.02; with A56G A66U G84U A86U, 0.64; with U57A C112U U127C, 0.01. As for A56G A91U A117G, the self-cleavage was found to be 2.64. Next, A59G A64G A86G A126G: 0.71; A59U A82G A92G: 0.7.
